From the supplement of paper PMC7125110
± gives the standard error. Variants at the background level are over-represented here.

B1: glmS ribozyme (parent)
chain: AUAAAAGCGCCAGAACUACAGAAAUGUAGUUGACGAGGAGGAGGUUUAUCGAAUUUUCGGCGGAUGCCUCCAAA

Assays:
Conditions in all cases: with glucosamine-6-phosphate
glucosamine-6-phosphate [1] = variants of: B1; experiment: self-cleavage kobs at 40 uM GlcN6P; higher = faster cleavage; RNA array
Summary of the method: (§1)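 Barcoded ribozyme variants were transcribed in situ on sequenced MiSeq chips by E. coli RNA polymerase. At 37 °C, a hybridised Cy3 probe tracked them while glucosamine-6-phosphate (40 μM to 10 mM) in HEPES/KCl/Mg(OAc)2 buffer flowed in and tiles were imaged over ~14 h. Per-tile medians of signals normalised to baseline and to non-cleaving reference variants were fit to one- or two-exponential decays, giving kobs. kcat and KM came from weighted Michaelis–Menten fits across concentrations.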

glucosamine-6-phosphate [2] = variants of: B1; experiment: self-cleavage kobs at 640 uM GlcN6P; higher = faster cleavage; RNA array
Summary of the method: as §1

glucosamine-6-phosphate [3] = variants of: B1; experiment: self-cleavage kobs at 160 uM GlcN6P; higher = faster cleavage; RNA array
Summary of the method: as §1

glucosamine-6-phosphate [4] = variants of: B1; experiment: self-cleavage kobs at 2500 uM GlcN6P; higher = faster cleavage; RNA array
Summary of the method: as §1

glucosamine-6-phosphate [5] = variants of: B1; experiment: self-cleavage kobs at 10000 uM GlcN6P; higher = faster cleavage; RNA array
Summary of the method: as §1

Variant	self-cleavage kobs at 40 uM GlcN6P (glucosamine-6-phosphate [1])	self-cleavage kobs at 640 uM GlcN6P (glucosamine-6-phosphate [2])	self-cleavage kobs at 160 uM GlcN6P (glucosamine-6-phosphate [3])	self-cleavage kobs at 2500 uM GlcN6P (glucosamine-6-phosphate [4])	self-cleavage kobs at 10000 uM GlcN6P (glucosamine-6-phosphate [5])
A64G	0.000914 ± 1.8e-05 s⁻¹	0.0109 ± 0.0004 s⁻¹	0.0031 ± 0.0002 s⁻¹	0.0249 ± 0.0011 s⁻¹	0.0412 ± 0.0018 s⁻¹
G60U C70G	< 1e-05 s⁻¹				< 1e-05 s⁻¹
G60U C70U	< 1e-05 s⁻¹	< 1e-05 s⁻¹	< 1e-05 s⁻¹		< 1e-05 s⁻¹
A6U U47C G60A		< 1e-05 s⁻¹			
G62A U69A	< 1e-05 s⁻¹				
U69C C70A	< 1e-05 s⁻¹				
U69C C70U	5.3e-05 ± 1.3e-05 s⁻¹	0.000254 ± 3.7e-05 s⁻¹	0.000108 ± 2.4e-05 s⁻¹	0.000524 ± 7.1e-05 s⁻¹	0.000743 ± 0.00018 s⁻¹
A6C U49A C50U		< 1e-05 s⁻¹	< 1e-05 s⁻¹		
A6C G38C U49C C68U C70U		< 1e-05 s⁻¹	< 1e-05 s⁻¹		
A6U A52U A53G		< 1e-05 s⁻¹		< 1e-05 s⁻¹	
G60U G62A C70U	< 1e-05 s⁻¹				
A6C U45C G51C U65G C70G		< 1e-05 s⁻¹		< 1e-05 s⁻¹	
A6G C11A G59U G60C		< 1e-05 s⁻¹			
G62U C71A	< 1e-05 s⁻¹			< 1e-05 s⁻¹	
G59U C71A	< 1e-05 s⁻¹				
A6U G9U G51U C58A		< 1e-05 s⁻¹	< 1e-05 s⁻¹		
A6G A14C U30A C68A		< 1e-05 s⁻¹			
C58U A64G C70A	< 1e-05 s⁻¹				
A6U A14G G51C G59C		< 1e-05 s⁻¹			
G59C G63U	< 1e-05 s⁻¹	< 1e-05 s⁻¹		< 1e-05 s⁻¹	< 1e-05 s⁻¹
G59U A64G	< 1e-05 s⁻¹				
A6G G37U G60C		< 1e-05 s⁻¹		< 1e-05 s⁻¹	
A6G C61G C71G		7.45e-05 ± 2.4e-05 s⁻¹			

Variant	self-cleavage kobs at 40 uM GlcN6P (glucosamine-6-phosphate [1])	self-cleavage kobs at 640 uM GlcN6P (glucosamine-6-phosphate [2])	self-cleavage kobs at 160 uM GlcN6P (glucosamine-6-phosphate [3])	self-cleavage kobs at 2500 uM GlcN6P (glucosamine-6-phosphate [4])	self-cleavage kobs at 10000 uM GlcN6P (glucosamine-6-phosphate [5])
A6G U55G G59A		< 1e-05 s⁻¹			
C67G U69A	< 1e-05 s⁻¹		< 1e-05 s⁻¹		
A6U G59U		< 1e-05 s⁻¹	< 1e-05 s⁻¹	< 1e-05 s⁻¹	< 1e-05 s⁻¹
A6C C11A U55C		< 1e-05 s⁻¹		< 1e-05 s⁻¹	
A6U G9A C61A C67A		< 1e-05 s⁻¹			
A6U G9U U31G C67G		< 1e-05 s⁻¹			
A6G G7U G35C G37A		< 1e-05 s⁻¹	< 1e-05 s⁻¹		
A6C C10A G35A C58G C70G		0.000553 ± 0.00014 s⁻¹	4.89e-05 ± 2.3e-05 s⁻¹	0.000134 ± 4.9e-05 s⁻¹	
C68A C70G	< 1e-05 s⁻¹				
G63C A64G	< 1e-05 s⁻¹		< 1e-05 s⁻¹	< 1e-05 s⁻¹	
A6G G40U U54A		< 1e-05 s⁻¹	< 1e-05 s⁻¹		
A6C G44U U65G		< 1e-05 s⁻¹		< 1e-05 s⁻¹	
A6G U31C C34U G37A G38C A48G C50A		< 1e-05 s⁻¹	< 1e-05 s⁻¹		
A6C C16U G38U U47C G63A		< 1e-05 s⁻¹		< 1e-05 s⁻¹	
C61U C68A	< 1e-05 s⁻¹				< 1e-05 s⁻¹
A6G G32C U56G		< 1e-05 s⁻¹		< 1e-05 s⁻¹	
A6U G9C A52U C67A C70U		< 1e-05 s⁻¹			
U65A C67U U69G	< 1e-05 s⁻¹				
C71G	0.000157 ± 1.8e-05 s⁻¹	0.000926 ± 4.6e-05 s⁻¹	0.00041 ± 3.6e-05 s⁻¹	0.00218 ± 0.00013 s⁻¹	0.00313 ± 0.00019 s⁻¹
G63U U65G	< 1e-05 s⁻¹	< 1e-05 s⁻¹	< 1e-05 s⁻¹	< 1e-05 s⁻¹	< 1e-05 s⁻¹
A6U G29U G32U A42G U47A C71G		< 1e-05 s⁻¹		< 1e-05 s⁻¹	
A6G A12G A15G U49A C70G		< 1e-05 s⁻¹			
A6U G51U A52G C61A		< 1e-05 s⁻¹		< 1e-05 s⁻¹	

Variant	self-cleavage kobs at 40 uM GlcN6P (glucosamine-6-phosphate [1])	self-cleavage kobs at 640 uM GlcN6P (glucosamine-6-phosphate [2])	self-cleavage kobs at 160 uM GlcN6P (glucosamine-6-phosphate [3])	self-cleavage kobs at 2500 uM GlcN6P (glucosamine-6-phosphate [4])	self-cleavage kobs at 10000 uM GlcN6P (glucosamine-6-phosphate [5])
A6U C34U C50A		< 1e-05 s⁻¹		< 1e-05 s⁻¹	
A6C G38U U54C		< 1e-05 s⁻¹			
G62C G66C	< 1e-05 s⁻¹		< 1e-05 s⁻¹	< 1e-05 s⁻¹	
A6U U30G U31G G32U A64C		< 1e-05 s⁻¹	< 1e-05 s⁻¹	< 1e-05 s⁻¹	
A6G U31G		4.67e-05 ± 9.4e-06 s⁻¹			
A6C G37U U49A		< 1e-05 s⁻¹			< 1e-05 s⁻¹
A6C G7C U45A		< 1e-05 s⁻¹			
A6G C11U G43C		< 1e-05 s⁻¹	< 1e-05 s⁻¹		
A6G G7A A36G		< 1e-05 s⁻¹		< 1e-05 s⁻¹	
A6C G44C C70G		< 1e-05 s⁻¹			
G7A A12U U47A C61A A64C		< 1e-05 s⁻¹	< 1e-05 s⁻¹	< 1e-05 s⁻¹	
A6C C50U		< 1e-05 s⁻¹	< 1e-05 s⁻¹	< 1e-05 s⁻¹	< 1e-05 s⁻¹
G62C C71A	< 1e-05 s⁻¹	< 1e-05 s⁻¹	< 1e-05 s⁻¹	< 1e-05 s⁻¹	
C58G G60U	< 1e-05 s⁻¹	< 1e-05 s⁻¹	< 1e-05 s⁻¹	< 1e-05 s⁻¹	
A6C G13U G51U A52C A64U		< 1e-05 s⁻¹	< 1e-05 s⁻¹	< 1e-05 s⁻¹	
C61A C70U	< 1e-05 s⁻¹				
A6G G7C C10U G35U G40U G60A C70G		< 1e-05 s⁻¹	< 1e-05 s⁻¹	< 1e-05 s⁻¹	
A6G G63C C71U		< 1e-05 s⁻¹	< 1e-05 s⁻¹	< 1e-05 s⁻¹	
A6U G44U U55C		< 1e-05 s⁻¹	< 1e-05 s⁻¹	< 1e-05 s⁻¹	
A6C U30A G35U U45G A64U		< 1e-05 s⁻¹			
A6G U49C U55A		< 1e-05 s⁻¹		< 1e-05 s⁻¹	
A6C C11G A36G G41U U55C		< 1e-05 s⁻¹		< 1e-05 s⁻¹	< 1e-05 s⁻¹
A6U G35A G38U U65G		< 1e-05 s⁻¹		< 1e-05 s⁻¹	

Variant	self-cleavage kobs at 40 uM GlcN6P (glucosamine-6-phosphate [1])	self-cleavage kobs at 640 uM GlcN6P (glucosamine-6-phosphate [2])	self-cleavage kobs at 160 uM GlcN6P (glucosamine-6-phosphate [3])	self-cleavage kobs at 2500 uM GlcN6P (glucosamine-6-phosphate [4])	self-cleavage kobs at 10000 uM GlcN6P (glucosamine-6-phosphate [5])
A6U A33C G43A		< 1e-05 s⁻¹		< 1e-05 s⁻¹	
A6U G38A A52U G60C		< 1e-05 s⁻¹			
A6U A12U A52C U65C		< 1e-05 s⁻¹	< 1e-05 s⁻¹	< 1e-05 s⁻¹	
U65G C68U	5.31e-05 ± 8.4e-06 s⁻¹	0.000304 ± 4.1e-05 s⁻¹	0.000159 ± 3.2e-05 s⁻¹	0.000758 ± 0.00013 s⁻¹	0.00155 ± 0.00018 s⁻¹
A6C A48U U49G		< 1e-05 s⁻¹	< 1e-05 s⁻¹	< 1e-05 s⁻¹	
A6G C11G G41U U46A G63U		< 1e-05 s⁻¹	< 1e-05 s⁻¹		< 1e-05 s⁻¹
C67U C70A	< 1e-05 s⁻¹				
A6G A39U		8.14e-05 ± 1.2e-05 s⁻¹	2.95e-05 ± 1.1e-05 s⁻¹	0.000176 ± 2.3e-05 s⁻¹	0.000239 ± 3.2e-05 s⁻¹
A6G G40U U47C C67G		< 1e-05 s⁻¹	< 1e-05 s⁻¹		
A6G U49C G63A		< 1e-05 s⁻¹	< 1e-05 s⁻¹	< 1e-05 s⁻¹	
A6G A52U A64G C67U		< 1e-05 s⁻¹		< 1e-05 s⁻¹	
G62A A64C	< 1e-05 s⁻¹	< 1e-05 s⁻¹	< 1e-05 s⁻¹		
A6C G38C A53G		< 1e-05 s⁻¹			
C67U C71U	6.24e-05 ± 6.8e-06 s⁻¹				
C58A G63C	< 1e-05 s⁻¹	< 1e-05 s⁻¹	< 1e-05 s⁻¹		< 1e-05 s⁻¹
A6G A36U G60C C68G		< 1e-05 s⁻¹			
C58U G62A	< 1e-05 s⁻¹	< 1e-05 s⁻¹	< 1e-05 s⁻¹	< 1e-05 s⁻¹	< 1e-05 s⁻¹
A6C A12G U54G		< 1e-05 s⁻¹		< 1e-05 s⁻¹	
A6U C50G U55A C71U		0.00151 ± 0.00047 s⁻¹			
A6C C8A A12C C50A		< 1e-05 s⁻¹			
C61U C70A	< 1e-05 s⁻¹				
U2C C16G A53C		0.000137 ± 1.9e-05 s⁻¹	4.66e-05 ± 1.6e-05 s⁻¹	0.000285 ± 4.6e-05 s⁻¹	
A6G G29U A36C		< 1e-05 s⁻¹			

Variant	self-cleavage kobs at 40 uM GlcN6P (glucosamine-6-phosphate [1])	self-cleavage kobs at 640 uM GlcN6P (glucosamine-6-phosphate [2])	self-cleavage kobs at 160 uM GlcN6P (glucosamine-6-phosphate [3])	self-cleavage kobs at 2500 uM GlcN6P (glucosamine-6-phosphate [4])	self-cleavage kobs at 10000 uM GlcN6P (glucosamine-6-phosphate [5])
G62U G66U	< 1e-05 s⁻¹		< 1e-05 s⁻¹		< 1e-05 s⁻¹
C61G C71G	3.55e-05 ± 1.3e-05 s⁻¹				
A1U U2G A3G C34A A42U G62A		< 1e-05 s⁻¹		< 1e-05 s⁻¹	
A6U G7U		< 1e-05 s⁻¹	< 1e-05 s⁻¹	< 1e-05 s⁻¹	< 1e-05 s⁻¹
A6G A53C G63A A64G		< 1e-05 s⁻¹	< 1e-05 s⁻¹		
G62U C67A	< 1e-05 s⁻¹				
C61G A64U	< 1e-05 s⁻¹		< 1e-05 s⁻¹		< 1e-05 s⁻¹
A6C G7A G62A C71G		< 1e-05 s⁻¹			
A6C A53U U57C		< 1e-05 s⁻¹			
A6G G13A G51U U56C		< 1e-05 s⁻¹	< 1e-05 s⁻¹	< 1e-05 s⁻¹	
A6C A15G A52U C67U		< 1e-05 s⁻¹			
G60A C61A	< 1e-05 s⁻¹		< 1e-05 s⁻¹		
A6G G35U A42U		< 1e-05 s⁻¹			
G62C G63A	< 1e-05 s⁻¹				
A64U C71G	< 1e-05 s⁻¹				
G60C C67A C71U	< 1e-05 s⁻¹				
A6C G13C G62C		< 1e-05 s⁻¹			
G59U	< 1e-05 s⁻¹				
G59C U65C	< 1e-05 s⁻¹				< 1e-05 s⁻¹
C58U G66A	< 1e-05 s⁻¹				
G63A C67A	< 1e-05 s⁻¹	< 1e-05 s⁻¹			< 1e-05 s⁻¹
